# According to the supplement of paper PMC8728848:
# This is one part of the list.
# B1: Gal 8 (Homo sapiens), O00214_1 (protein)
# chain: MMLSLNNLQNIIYNPVIPFVGTIPDQLDPGTLIVIRGHVPSDADRFQVDLQNGSSMKPRADVAFHFNPRFKRAGCIVCNTLINEKWGREEITYDTPFKREKSFEIVIMVLKDKFQVAVNGKHTLLYGHRIGPEKIDTLGIYGKVNIHSIGFSFSSDLQSTQASSLELTEISRENVPKSGTPQLRLPFAARLNTPMGPGRTVVVKGEVNANAKSFNVDLLAGKSKDIALHLNPRLNIKAFVRNSFLQESWGEEERNITSFPFSPGMYFEMIIYCDVREFKVAVNGVHSLEYKHRFKELSSIDTLEINGDIHLLEVRSW
# Experiments:
# Assay in all cases: glycan array binding signal (z-score within array); higher = stronger binding
# Details in all cases: glycan notation: IUPAC condensed, linker removed
# [1] = target: Fuc(a1-2)Gal(b1-4)GlcNAc(b1-3)Gal(b1-4)GlcNAc(b1-3)Gal(b1-4)GlcNAc
# In short: (§1)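 Glycan array binding is given as a within-array Z-score, which can be read as non-binding when negative. The arrays, 3228 of them, came from the Consortium for Functional Glycomics database and were retained only where the protein sequence was available. Z-scores were averaged across arrays of the same protein sequence at different concentrations or buffers and across linkers.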
# [2] = target: Fuc(a1-2)Gal(b1-4)GlcNAc(b1-3)GalNAc
# In short: as §1
# [3] = target: Fuc(a1-2)Gal(b1-4)GlcNAc(b1-3)[Fuc(a1-2)Gal(b1-4)GlcNAc(b1-6)]GalNAc
# In short: as §1
# [4] = target: Fuc(a1-2)Gal(b1-4)GlcNAc(b1-6)GalNAc
# In short: as §1
# [5] = target: Fuc(a1-2)Gal(b1-4)GlcNAc6S
# In short: as §1
# [6] = target: Fuc(a1-2)Gal(b1-4)[Fuc(a1-3)]GlcNAc
# In short: as §1
# [7] = target: Fuc(a1-2)Gal(b1-4)[Fuc(a1-3)]GlcNAc(b1-2)Man(a1-3)[Fuc(a1-2)Gal(b1-4)[Fuc(a1-3)]GlcNAc(b1-2)Man(a1-6)]Man(b1-4)GlcNAc(b1-4)GlcNAc
# In short: as §1
# [8] = target: Fuc(a1-2)Gal(b1-4)[Fuc(a1-3)]GlcNAc(b1-2)Man(a1-6)[Fuc(a1-2)Gal(b1-4)[Fuc(a1-3)]GlcNAc(b1-2)Man(a1-3)]Man(b1-4)GlcNAc(b1-4)[Fuc(a1-6)]GlcNAc
# In short: as §1
# [9] = target: Fuc(a1-2)Gal(b1-4)[Fuc(a1-3)]GlcNAc(b1-2)[Fuc(a1-2)Gal(b1-4)[Fuc(a1-3)]GlcNAc(b1-4)]Man(a1-3)[Fuc(a1-2)Gal(b1-4)[Fuc(a1-3)]GlcNAc(b1-2)Man(a1-6)]Man(b1-4)GlcNAc(b1-4)GlcNAc
# In short: as §1
# [10] = target: Fuc(a1-2)Gal(b1-4)[Fuc(a1-3)]GlcNAc(b1-3)Gal(b1-4)[Fuc(a1-3)]GlcNAc
# In short: as §1
# [11] = target: Fuc(a1-2)Gal(b1-4)[Fuc(a1-3)]GlcNAc(b1-3)Gal(b1-4)[Fuc(a1-3)]GlcNAc(b1-3)Gal(b1-4)[Fuc(a1-3)]GlcNAc
# In short: as §1
# [12] = target: Fuc(a1-2)Gal(b1-4)[Fuc(a1-3)]GlcNAc(b1-3)GalNAc
# In short: as §1
# [13] = target: Fuc(a1-2)Gal(b1-4)[Fuc(a1-3)]GlcNAc(b1-3)[Neu5Ac(a2-6)Gal(b1-4)GlcNAc(b1-6)]Gal(b1-4)Glc
# In short: as §1
# [14] = target: Fuc(a1-2)Gal6S(b1-3)GlcNAc
# In short: as §1
# [15] = target: Fuc(a1-2)Gal6S(b1-3)GlcNAc6S
# In short: as §1
# Fuc(a1-2)Gal6S(b1-4)Glc = target: Fuc(a1-2)Gal6S(b1-4)Glc
# In short: as §1
# [16] = target: Fuc(a1-2)Gal6S(b1-4)Glc6S
# In short: as §1
# [17] = target: Fuc(a1-2)Gal6S(b1-4)GlcNAc
# In short: as §1
# Fuc(a1-2)[Gal(a1-3)]Gal = target: Fuc(a1-2)[Gal(a1-3)]Gal
# In short: as §1
# [18] = target: Fuc(a1-2)[Gal(a1-3)]Gal(b1-3)GalNAc
# In short: as §1
# [19] = target: Fuc(a1-2)[Gal(a1-3)]Gal(b1-3)GlcNAc
# In short: as §1
# [20] = target: Fuc(a1-2)[Gal(a1-3)]Gal(b1-3)GlcNAc(b1-2)Man(a1-3)[Fuc(a1-2)[Gal(a1-3)]Gal(b1-3)GlcNAc(b1-2)Man(a1-6)]Man(b1-4)GlcNAc(b1-4)GlcNAc
# In short: as §1
# [21] = target: Fuc(a1-2)[Gal(a1-3)]Gal(b1-3)GlcNAc(b1-2)Man(a1-3)[Fuc(a1-2)[Gal(a1-3)]Gal(b1-3)GlcNAc(b1-2)Man(a1-6)]Man(b1-4)GlcNAc(b1-4)[Fuc(a1-6)]GlcNAc
# In short: as §1
# [22] = target: Fuc(a1-2)[Gal(a1-3)]Gal(b1-3)GlcNAc(b1-3)GalNAc
# In short: as §1
# [23] = target: Fuc(a1-2)[Gal(a1-3)]Gal(b1-4)Glc
# In short: as §1
# [24] = target: Fuc(a1-2)[Gal(a1-3)]Gal(b1-4)GlcNAc
# In short: as §1
# [25] = target: Fuc(a1-2)[Gal(a1-3)]Gal(b1-4)GlcNAc(b1-2)Man(a1-3)[Fuc(a1-2)[Gal(a1-3)]Gal(b1-4)GlcNAc(b1-2)Man(a1-6)]Man(b1-4)GlcNAc(b1-4)GlcNAc
# In short: as §1
# [26] = target: Fuc(a1-2)[Gal(a1-3)]Gal(b1-4)GlcNAc(b1-2)Man(a1-3)[Fuc(a1-2)[Gal(a1-3)]Gal(b1-4)GlcNAc(b1-2)Man(a1-6)]Man(b1-4)GlcNAc(b1-4)[Fuc(a1-6)]GlcNAc
# In short: as §1
# [27] = target: Fuc(a1-2)[Gal(a1-3)]Gal(b1-4)GlcNAc(b1-3)GalNAc
# In short: as §1
# [28] = target: Fuc(a1-2)[Gal(a1-3)]Gal(b1-4)GlcNAc(b1-6)GalNAc
# In short: as §1
# [29] = target: Fuc(a1-2)[Gal(a1-3)]Gal(b1-4)[Fuc(a1-3)]Glc
# In short: as §1
# [30] = target: Fuc(a1-2)[Gal(a1-3)]Gal(b1-4)[Fuc(a1-3)]GlcNAc
# In short: as §1
# [31] = target: Fuc(a1-2)[Gal(a1-3)]Gal(b1-4)[Fuc(a1-3)]GlcNAc(b1-3)GalNAc
# In short: as §1
# [32] = target: Fuc(a1-2)[Gal(a1-4)]Gal(b1-4)GlcNAc
# In short: as §1
# [33] = target: Fuc(a1-2)[GalNAc(a1-3)]Gal
# In short: as §1
# [34] = target: Fuc(a1-2)[GalNAc(a1-3)]Gal(b1-3)GalNAc(a1-3)[Fuc(a1-2)]Gal(b1-4)GlcNAc
# In short: as §1
# [35] = target: Fuc(a1-2)[GalNAc(a1-3)]Gal(b1-3)GlcNAc
# In short: as §1
binder,measurement,setting,value
B1,glycan array binding signal (z-score),[1],0.644
same,glycan array binding signal (z-score),[2],-0.216
same,glycan array binding signal (z-score),[3],-0.182
same,glycan array binding signal (z-score),[4],-0.18
same,glycan array binding signal (z-score),[5],-0.183
same,glycan array binding signal (z-score),[6],-0.196
same,glycan array binding signal (z-score),[7],-0.08
same,glycan array binding signal (z-score),[8],-0.187
same,glycan array binding signal (z-score),[9],-0.069
same,glycan array binding signal (z-score),[10],-0.208
same,glycan array binding signal (z-score),[11],-0.194
same,glycan array binding signal (z-score),[12],0.081
same,glycan array binding signal (z-score),[13],-0.193
same,glycan array binding signal (z-score),[14],-0.249
same,glycan array binding signal (z-score),[15],-0.125
same,glycan array binding signal (z-score),Fuc(a1-2)Gal6S(b1-4)Glc,-0.194
same,glycan array binding signal (z-score),[16],-0.241
same,glycan array binding signal (z-score),[17],-0.203
same,glycan array binding signal (z-score),Fuc(a1-2)[Gal(a1-3)]Gal,-0.239
same,glycan array binding signal (z-score),[18],0.362
same,glycan array binding signal (z-score),[19],1.58
same,glycan array binding signal (z-score),[20],0.625
same,glycan array binding signal (z-score),[21],0.888
same,glycan array binding signal (z-score),[22],0.542
same,glycan array binding signal (z-score),[23],3.1
same,glycan array binding signal (z-score),[24],1.45
same,glycan array binding signal (z-score),[25],2.33
same,glycan array binding signal (z-score),[26],1.7
same,glycan array binding signal (z-score),[27],1.34
same,glycan array binding signal (z-score),[28],-0.215
same,glycan array binding signal (z-score),[29],-0.246
same,glycan array binding signal (z-score),[30],-0.143
same,glycan array binding signal (z-score),[31],-0.221
same,glycan array binding signal (z-score),[32],-0.251
same,glycan array binding signal (z-score),[33],-0.207
same,glycan array binding signal (z-score),[34],1.73
same,glycan array binding signal (z-score),[35],2.06
